This note sets out measurements from the supplement of paper PMC4604168 (melanoma cell lines).

The other results are listed elsewhere or left out. Many values rest on one well or one pass, so single values are uncertain.
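Further: cells treated in 1,536-well plates, then fixed and DAPI-stained, with nuclei counted from automated high-throughput microscope images.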

The subject of this assay is LB2518-MEL. The experiment in a line: cell count relative to DMSO control; melanoma cells; higher = more viable cells. Conditions: library dose: standard library concentration; 72 h.
Take `Nc1ncn([C@H]2C[C@H](O)[C@@H](CO)O2)c(=O)n1` [decitabine] + C#Cc1cccc(Nc2ncnc3cc(OCCOC)c(OCCOC)cc23)c1 [erlotinib] (first compound 0.5 µM, partner dose 4 µM): the cell count is 54.2%.
The same measure for `CC(=O)O[C@@]12CO[C@@H]1C[C@H](O)[C@@]1(C)C(=O)[C@H](O)C3=C(C)[C@@H](OC(=O)[C@H](O)[C@@H](NC(=O)OC(C)(C)C)c4ccccc4)C[C@@](O)([C@@H](OC(=O)c4ccccc4)[C@H]21)C3(C)C` [Docetaxel] + OCc1c[nH]c2ccccc12 [Indole-3-carbinol] (first compound 0.0005 µM, partner dose 4 µM): 51.7%.
Under `CO[C@H]1C[C@@H]2CC[C@@H](C)[C@@](O)(O2)C(=O)C(=O)N2CCCC[C@H]2C(=O)O[C@H]([C@H](C)C[C@@H]2CC[C@@H](OCCO)[C@H](OC)C2)CC(=O)[C@H](C)/C=C(\C)[C@@H](O)[C@@H](OC)C(=O)[C@H](C)C[C@H](C)/C=C/C=C/C=C/1C` [everolimus] + COc1cc(Nc2ncc(F)c(Nc3ccc4c(n3)NC(=O)C(C)(C)O4)n2)cc(OC)c1OC [Tamatinib] (first compound 0.1 µM, partner dose 2 µM) stands 68.4%; under `Nc1ncn([C@H]2C[C@H](O)[C@@H](CO)O2)c(=O)n1` [decitabine] + CN(C)S(=O)(=O)c1ccc2c(c1)/C(=C/c1cc3c([nH]1)CCCC3)C(=O)N2 [SU6656] (first compound 0.5 µM, partner dose 2 µM), 65.3%.
